# Test results as given in paper PMC6225228, “Design, Synthesis and Evaluation of N-pyrazinylbenzamides as Potential Antimycobacterial Agents” (Molecules : A Journal of Synthetic Chemistry and Natural …, 2018).
# Tested on: Klebsiella pneumoniae D 11750/08
# Conditions: 24 h
row,Compound,MIC KP [µM]
1,O=C(Nc1cnccn1)c1ccccc1 [Compound 1a],> 500
2,O=C(Nc1cnccn1)c1ccccc1O [Compound 1b],> 500
3,CC(=O)Oc1cccc(C(=O)Nc2cnccn2)c1 [Compound 1c-Ac],> 500
4,O=C(Nc1cnccn1)c1cccc(O)c1 [Compound 1c],> 500
5,CC(=O)Oc1ccc(C(=O)Nc2cnccn2)cc1 [Compound 1d-Ac],> 500
6,COc1ccccc1C(=O)Nc1cnccn1 [Compound 1e],> 500
7,COc1cccc(C(=O)Nc2cnccn2)c1 [Compound 1f],> 500
8,COc1ccc(C(=O)Nc2cnccn2)cc1 [Compound 1g],> 500
9,Cc1ccc(C(=O)Nc2cnccn2)cc1 [Compound 1h],> 500
10,CCc1ccc(C(=O)Nc2cnccn2)cc1 [Compound 1i],> 500
11,O=C(Nc1cnccn1)c1ccccc1Cl [Compound 1j],> 500
12,O=C(Nc1cnccn1)c1cccc(Cl)c1 [Compound 1k],> 125
13,O=C(c1ccc(Cl)cc1)N(C(=O)c1ccc(Cl)cc1)c1cnccn1 [Compound 1l-SP],> 125
14,O=C(Nc1cnccn1)c1ccc(Cl)cc1 [Compound 1l],> 125
15,O=C(Nc1cnccn1)c1cccc(C(F)(F)F)c1 [Compound 1n],> 125
16,O=C(Nc1cnc(Cl)cn1)c1ccccc1 [Compound 2a],> 500
17,CC(=O)Oc1ccccc1C(=O)Nc1cnc(Cl)cn1 [Compound 2b-Ac],> 250
18,O=C(Nc1cnc(Cl)cn1)c1ccccc1O [Compound 2b],250

# Same assay, conditions: 48 h
row,Compound,MIC KP [µM]
1,O=C(Nc1cnccn1)c1ccccc1 [Compound 1a],> 500
2,O=C(Nc1cnccn1)c1ccccc1O [Compound 1b],> 500
3,CC(=O)Oc1cccc(C(=O)Nc2cnccn2)c1 [Compound 1c-Ac],> 500
4,O=C(Nc1cnccn1)c1cccc(O)c1 [Compound 1c],> 500
5,CC(=O)Oc1ccc(C(=O)Nc2cnccn2)cc1 [Compound 1d-Ac],> 500
6,COc1ccccc1C(=O)Nc1cnccn1 [Compound 1e],> 500
7,COc1cccc(C(=O)Nc2cnccn2)c1 [Compound 1f],> 500
8,COc1ccc(C(=O)Nc2cnccn2)cc1 [Compound 1g],> 500
9,Cc1ccc(C(=O)Nc2cnccn2)cc1 [Compound 1h],> 500
10,CCc1ccc(C(=O)Nc2cnccn2)cc1 [Compound 1i],> 500
11,O=C(Nc1cnccn1)c1ccccc1Cl [Compound 1j],> 500
12,O=C(Nc1cnccn1)c1cccc(Cl)c1 [Compound 1k],> 125
13,O=C(c1ccc(Cl)cc1)N(C(=O)c1ccc(Cl)cc1)c1cnccn1 [Compound 1l-SP],> 125
14,O=C(Nc1cnccn1)c1ccc(Cl)cc1 [Compound 1l],> 125
15,O=C(Nc1cnccn1)c1cccc(C(F)(F)F)c1 [Compound 1n],> 125
16,O=C(Nc1cnc(Cl)cn1)c1ccccc1 [Compound 2a],> 500
17,CC(=O)Oc1ccccc1C(=O)Nc1cnc(Cl)cn1 [Compound 2b-Ac],> 250
18,O=C(Nc1cnc(Cl)cn1)c1ccccc1O [Compound 2b],250

# Tested on: Klebsiella pneumoniae J 14368/08 ESBL positive
# Conditions: 24 h
row,Compound,MIC KP-E [µM]
1,O=C(Nc1cnccn1)c1ccccc1 [Compound 1a],> 500
2,O=C(Nc1cnccn1)c1ccccc1O [Compound 1b],> 500
3,CC(=O)Oc1cccc(C(=O)Nc2cnccn2)c1 [Compound 1c-Ac],> 500
4,O=C(Nc1cnccn1)c1cccc(O)c1 [Compound 1c],> 500
5,CC(=O)Oc1ccc(C(=O)Nc2cnccn2)cc1 [Compound 1d-Ac],> 500
6,COc1ccccc1C(=O)Nc1cnccn1 [Compound 1e],> 500
7,COc1cccc(C(=O)Nc2cnccn2)c1 [Compound 1f],> 500
8,COc1ccc(C(=O)Nc2cnccn2)cc1 [Compound 1g],> 500
9,Cc1ccc(C(=O)Nc2cnccn2)cc1 [Compound 1h],> 500
10,CCc1ccc(C(=O)Nc2cnccn2)cc1 [Compound 1i],> 500
11,O=C(Nc1cnccn1)c1ccccc1Cl [Compound 1j],> 500
12,O=C(Nc1cnccn1)c1cccc(Cl)c1 [Compound 1k],> 125
13,O=C(c1ccc(Cl)cc1)N(C(=O)c1ccc(Cl)cc1)c1cnccn1 [Compound 1l-SP],> 125
14,O=C(Nc1cnccn1)c1ccc(Cl)cc1 [Compound 1l],> 125
15,O=C(Nc1cnccn1)c1cccc(C(F)(F)F)c1 [Compound 1n],> 125
16,O=C(Nc1cnc(Cl)cn1)c1ccccc1 [Compound 2a],> 500
17,CC(=O)Oc1ccccc1C(=O)Nc1cnc(Cl)cn1 [Compound 2b-Ac],> 250
18,O=C(Nc1cnc(Cl)cn1)c1ccccc1O [Compound 2b],250

# Same assay, conditions: 48 h
row,Compound,MIC KP-E [µM]
1,O=C(Nc1cnccn1)c1ccccc1 [Compound 1a],> 500
2,O=C(Nc1cnccn1)c1ccccc1O [Compound 1b],> 500
3,CC(=O)Oc1cccc(C(=O)Nc2cnccn2)c1 [Compound 1c-Ac],> 500
4,O=C(Nc1cnccn1)c1cccc(O)c1 [Compound 1c],> 500
5,CC(=O)Oc1ccc(C(=O)Nc2cnccn2)cc1 [Compound 1d-Ac],> 500
6,COc1ccccc1C(=O)Nc1cnccn1 [Compound 1e],> 500
7,COc1cccc(C(=O)Nc2cnccn2)c1 [Compound 1f],> 500
8,COc1ccc(C(=O)Nc2cnccn2)cc1 [Compound 1g],> 500
9,Cc1ccc(C(=O)Nc2cnccn2)cc1 [Compound 1h],> 500
10,CCc1ccc(C(=O)Nc2cnccn2)cc1 [Compound 1i],> 500
11,O=C(Nc1cnccn1)c1ccccc1Cl [Compound 1j],> 500
12,O=C(Nc1cnccn1)c1cccc(Cl)c1 [Compound 1k],> 125
13,O=C(c1ccc(Cl)cc1)N(C(=O)c1ccc(Cl)cc1)c1cnccn1 [Compound 1l-SP],> 125
14,O=C(Nc1cnccn1)c1ccc(Cl)cc1 [Compound 1l],> 125
15,O=C(Nc1cnccn1)c1cccc(C(F)(F)F)c1 [Compound 1n],> 125
16,O=C(Nc1cnc(Cl)cn1)c1ccccc1 [Compound 2a],> 500
17,CC(=O)Oc1ccccc1C(=O)Nc1cnc(Cl)cn1 [Compound 2b-Ac],> 250
18,O=C(Nc1cnc(Cl)cn1)c1ccccc1O [Compound 2b],250
